# The supplement of paper PMC10037445
# ± gives the standard deviation of the averaged measurements. Over roughly 2,900 compounds, “NF-kB SEAP reporter activity, fold change vs agonist alone” has its median near 0.99; the highest 2% begin near 2.6. Some of the results follow.
# Experiments:
# RAW-Dual [1] = test: NF-kB SEAP reporter activity, fold change vs agonist alone; cytotoxicity flag (confluency mask): cytotoxic (confluency <70% of control); higher = enhanced NF-kB activity
# In short: (§1)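 RAW-Dual macrophages (50,000 cells/well in DMEM, 384-well plates) received 50 nL of library stock by pin tool, then a PRR agonist 1 h later, and were kept at 37 °C, 5% CO2. After 20 hours, supernatant was read for IRF by QuantiLuc luminescence and for NF-κB by QuantiBlue absorbance at 620 nm. Reporter activity is fold change over agonist-alone wells. Cytotoxic wells had IncuCyte confluency below 70% of agonist controls in both mask sets.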
# RAW-Dual [2] = test: NF-kB SEAP reporter activity, fold change vs agonist alone; higher = enhanced NF-kB activity; details: cytotoxicity flag (confluency mask): not cytotoxic
# In short: as §1
# RAW-Dual [3] = test: NF-kB SEAP reporter activity, fold change vs agonist alone; cytotoxicity flag (confluency mask): not cytotoxic; higher = enhanced NF-kB activity
# In short: as §1
# [4] = agonist: ODN 1826 (TLR9) 0.5 ug/mL
# [5] = agonist: Pam2CSK4 (TLR2/6) 0.1 ug/mL
# [6] = agonist: Pam3CSK4 (TLR2/1) 0.1 ug/mL
# [7] = library stock concentration (final ~1000-fold dilution): 10 mM, agonist: Imiquimod (TLR7) […]
# [8] = library stock concentration (final ~1000-fold dilution): 10 mM, agonist: MPLA (TLR4) […]
# [9] = library stock concentration (final ~1000-fold dilution): 2 mM, agonist: Imiquimod (TLR7) […]
# [10] = library stock concentration (final ~1000-fold dilution): 2 mM, agonist: MPLA (TLR4) […]
structure (smiles),measurement,setting,value
Br.Cc1ccc(Sc2ccccc2N2CCNCC2)c(C)c1 (library stock concentration (final ~1000-fold dilution): 10 mM),NF-kB SEAP reporter activity,RAW-Dual [1]; agonist: LPS (TLR4) 0.1 ug/mL,0.697
same,NF-kB SEAP reporter activity,RAW-Dual [1]; [4],0.271
same,NF-kB SEAP reporter activity,RAW-Dual [1]; [5],0.438
same,NF-kB SEAP reporter activity,RAW-Dual [1]; [6],0.404
Cc1ccc(S(=O)(=O)n2c(N)nc3ccccc32)cc1,NF-kB SEAP reporter activity,RAW-Dual [2]; [7],0.908 ± 0.12
same,NF-kB SEAP reporter activity,RAW-Dual [2]; [8],1.04 ± 0.043
Cc1ccc(S(=O)(=O)n2c(N)nc3ccccc32)cc1 (library stock concentration (final ~1000-fold dilution): 10 mM),NF-kB SEAP reporter activity,RAW-Dual [3]; agonist: LPS (TLR4) 0.1 ug/mL,1.37 ± 0.34
same,NF-kB SEAP reporter activity,RAW-Dual [3]; [4],0.658 ± 0.024
same,NF-kB SEAP reporter activity,RAW-Dual [3]; [5],0.959 ± 0.19
same,NF-kB SEAP reporter activity,RAW-Dual [3]; [6],1.06 ± 0.12
CC/C(C)=C/CC[C@](C)(O)C1CC[C@]2(C)C3C[C@@H](O[C@@H]4O[C@H](CO)[C@@H](O)[C@H](O)[C@H]4O[C@@H]4O[C@@H](C)[C@H](O)[C@@H](O)[C@H]4O)C4C(C)(C)C(O)CC[C@]4(C)C3C[C@H](O)C12 (stereo partly specified),NF-kB SEAP reporter activity,RAW-Dual [2]; [7],0.952
same,NF-kB SEAP reporter activity,RAW-Dual [2]; [8],0.934
CC/C(C)=C/CC[C@](C)(O)C1CC[C@]2(C)C3C[C@@H](O[C@@H]4O[C@H](CO)[C@@H](O)[C@H](O)[C@H]4O[C@@H]4O[C@@H](C)[C@H](O)[C@@H](O)[C@H]4O)C4C(C)(C)C(O)CC[C@]4(C)C3C[C@H](O)C12 (stereo partly specified) (library stock concentration (final ~1000-fold dilution): 10 mM),NF-kB SEAP reporter activity,RAW-Dual [3]; agonist: LPS (TLR4) 0.1 ug/mL,1.2
same,NF-kB SEAP reporter activity,RAW-Dual [3]; [4],0.992
same,NF-kB SEAP reporter activity,RAW-Dual [3]; [5],0.952
same,NF-kB SEAP reporter activity,RAW-Dual [3]; [6],1.14
CNC(=O)c1ccc(-c2cnc3ncc(Cc4ccc5ncccc5c4)n3n2)cc1F (library stock concentration (final ~1000-fold dilution): 2 mM),NF-kB SEAP reporter activity,RAW-Dual [3]; agonist: LPS (TLR4) 0.1 ug/mL,1.1
same,NF-kB SEAP reporter activity,RAW-Dual [3]; [4],1
same,NF-kB SEAP reporter activity,RAW-Dual [3]; [5],1.18
same,NF-kB SEAP reporter activity,RAW-Dual [3]; [6],1.19
CNC(=O)c1ccc(-c2cnc3ncc(Cc4ccc5ncccc5c4)n3n2)cc1F,NF-kB SEAP reporter activity,RAW-Dual [2]; [9],0.618
same,NF-kB SEAP reporter activity,RAW-Dual [2]; [10],1.02
O=C(NCc1ccncc1)C12CC3CC(C1)CC(c1ccc(Cl)cc1)(C3)C2,NF-kB SEAP reporter activity,RAW-Dual [2]; [7],0.691
same,NF-kB SEAP reporter activity,RAW-Dual [2]; [8],0.826
O=C(NCc1ccncc1)C12CC3CC(C1)CC(c1ccc(Cl)cc1)(C3)C2 (library stock concentration (final ~1000-fold dilution): 10 mM),NF-kB SEAP reporter activity,RAW-Dual [3]; agonist: LPS (TLR4) 0.1 ug/mL,0.536
same,NF-kB SEAP reporter activity,RAW-Dual [3]; [4],0.751
same,NF-kB SEAP reporter activity,RAW-Dual [3]; [5],0.89
same,NF-kB SEAP reporter activity,RAW-Dual [3]; [6],0.635
CCOc1ccc2c(c1)C(C)=CC(C)(C)N2,NF-kB SEAP reporter activity,RAW-Dual [2]; [7],0.871
same,NF-kB SEAP reporter activity,RAW-Dual [2]; [8],1.09
CCOc1ccc2c(c1)C(C)=CC(C)(C)N2 (library stock concentration (final ~1000-fold dilution): 10 mM),NF-kB SEAP reporter activity,RAW-Dual [3]; agonist: LPS (TLR4) 0.1 ug/mL,1.1
same,NF-kB SEAP reporter activity,RAW-Dual [3]; [4],1.12
same,NF-kB SEAP reporter activity,RAW-Dual [3]; [5],1
same,NF-kB SEAP reporter activity,RAW-Dual [3]; [6],1.05
COc1ccc(-c2cnc3c(-c4cccc5ncccc45)cnn3c2)cc1 (library stock concentration (final ~1000-fold dilution): 10 mM),NF-kB SEAP reporter activity,RAW-Dual [3]; agonist: LPS (TLR4) 0.1 ug/mL,0.884
same,NF-kB SEAP reporter activity,RAW-Dual [3]; [4],0.868
same,NF-kB SEAP reporter activity,RAW-Dual [3]; [5],0.95
same,NF-kB SEAP reporter activity,RAW-Dual [3]; [6],0.725
COc1ccc(-c2cnc3c(-c4cccc5ncccc45)cnn3c2)cc1,NF-kB SEAP reporter activity,RAW-Dual [2]; [7],0.847
same,NF-kB SEAP reporter activity,RAW-Dual [2]; [8],0.98
CC(/C=C/C=C(\C)C(=O)OC1OC(COC2OC(CO)C(O)C(O)C2O)C(O)C(O)C1O)=C\C=C\C=C(C)\C=C\C=C(/C)C(=O)OC1OC(COC2OC(CO)C(O)C(O)C2O)C(O)C(O)C1O (stereo unspecified) (library stock concentration (final ~1000-fold dilution): 10 mM),NF-kB SEAP reporter activity,RAW-Dual [3]; agonist: LPS (TLR4) 0.1 ug/mL,1.08
same,NF-kB SEAP reporter activity,RAW-Dual [3]; [4],0.948
same,NF-kB SEAP reporter activity,RAW-Dual [3]; [5],1.16
same,NF-kB SEAP reporter activity,RAW-Dual [3]; [6],1.19
CC(/C=C/C=C(\C)C(=O)OC1OC(COC2OC(CO)C(O)C(O)C2O)C(O)C(O)C1O)=C\C=C\C=C(C)\C=C\C=C(/C)C(=O)OC1OC(COC2OC(CO)C(O)C(O)C2O)C(O)C(O)C1O (stereo unspecified),NF-kB SEAP reporter activity,RAW-Dual [2]; [7],0.915
same,NF-kB SEAP reporter activity,RAW-Dual [2]; [8],1.03
Cc1ccc(C2OC(CO)C(O)C(O)C2O)cc1Cc1ccc(-c2ccc(F)cc2)s1 (stereo unspecified) (library stock concentration (final ~1000-fold dilution): 10 mM),NF-kB SEAP reporter activity,RAW-Dual [3]; agonist: LPS (TLR4) 0.1 ug/mL,1.44
same,NF-kB SEAP reporter activity,RAW-Dual [3]; [4],0.941
same,NF-kB SEAP reporter activity,RAW-Dual [3]; [5],0.915
same,NF-kB SEAP reporter activity,RAW-Dual [3]; [6],0.958
Cc1ccc(C2OC(CO)C(O)C(O)C2O)cc1Cc1ccc(-c2ccc(F)cc2)s1 (stereo unspecified),NF-kB SEAP reporter activity,RAW-Dual [2]; [7],1.47
same,NF-kB SEAP reporter activity,RAW-Dual [2]; [8],0.973
COc1ccc(C2OCC3C(c4ccc5c(c4)OCO5)OCC23)cc1OC (stereo unspecified) (library stock concentration (final ~1000-fold dilution): 10 mM),NF-kB SEAP reporter activity,RAW-Dual [3]; agonist: LPS (TLR4) 0.1 ug/mL,1.18
same,NF-kB SEAP reporter activity,RAW-Dual [3]; [4],0.814
same,NF-kB SEAP reporter activity,RAW-Dual [3]; [5],1
same,NF-kB SEAP reporter activity,RAW-Dual [3]; [6],0.963
COc1ccc(C2OCC3C(c4ccc5c(c4)OCO5)OCC23)cc1OC (stereo unspecified),NF-kB SEAP reporter activity,RAW-Dual [2]; [7],0.81
same,NF-kB SEAP reporter activity,RAW-Dual [2]; [8],1
O=C(COc1ccc(Cl)cc1)NC1CCC(NC(=O)COc2ccc(Cl)cc2)CC1 (stereo unspecified) (library stock concentration (final ~1000-fold dilution): 2 mM),NF-kB SEAP reporter activity,RAW-Dual [3]; agonist: LPS (TLR4) 0.1 ug/mL,0.784
same,NF-kB SEAP reporter activity,RAW-Dual [3]; [4],1.11
same,NF-kB SEAP reporter activity,RAW-Dual [3]; [5],1.11
same,NF-kB SEAP reporter activity,RAW-Dual [3]; [6],0.998
O=C(COc1ccc(Cl)cc1)NC1CCC(NC(=O)COc2ccc(Cl)cc2)CC1 (stereo unspecified),NF-kB SEAP reporter activity,RAW-Dual [2]; [9],0.951
same,NF-kB SEAP reporter activity,RAW-Dual [2]; [10],0.973
COc1cc2ncnc(Oc3cccc(NC(=O)Nc4cc(C(C)(C)C(F)(F)F)on4)c3)c2cc1OC (library stock concentration (final ~1000-fold dilution): 10 mM),NF-kB SEAP reporter activity,RAW-Dual [3]; agonist: LPS (TLR4) 0.1 ug/mL,0.425
same,NF-kB SEAP reporter activity,RAW-Dual [3]; [4],0.386
same,NF-kB SEAP reporter activity,RAW-Dual [3]; [5],0.0841
same,NF-kB SEAP reporter activity,RAW-Dual [3]; [6],0.146
COc1cc2ncnc(Oc3cccc(NC(=O)Nc4cc(C(C)(C)C(F)(F)F)on4)c3)c2cc1OC,NF-kB SEAP reporter activity,RAW-Dual [2]; [7],0.423
same,NF-kB SEAP reporter activity,RAW-Dual [2]; [8],0.604
NCC(=O)Nc1ccc(-n2nc(C(F)(F)F)cc2-c2ccc3c(ccc4ccccc43)c2)cc1 (library stock concentration (final ~1000-fold dilution): 10 mM),NF-kB SEAP reporter activity,RAW-Dual [3]; agonist: LPS (TLR4) 0.1 ug/mL,0.301
same,NF-kB SEAP reporter activity,RAW-Dual [3]; [4],0.193
same,NF-kB SEAP reporter activity,RAW-Dual [3]; [5],0.113
same,NF-kB SEAP reporter activity,RAW-Dual [3]; [6],0.175
NCC(=O)Nc1ccc(-n2nc(C(F)(F)F)cc2-c2ccc3c(ccc4ccccc43)c2)cc1,NF-kB SEAP reporter activity,RAW-Dual [2]; [7],0.728
same,NF-kB SEAP reporter activity,RAW-Dual [2]; [8],0.571
